Data reported in the RNAGym collection of RNA variant scans (doi:10.1101/gad.245936.114).
Variants at the background level are over-represented here.

B1: tRNA (parent)
chain: CUCUCGGUAGCCAAGUUGGUUUAAGGCGCAAGACUUUAAUUUAUCACUACGAAAUCUUGAGAUCGGGCGUUCGACUCGCCCCCGGGAGAUUUUUUCCUCGAGCAA

Variants of: B1
Test: nonsense suppression (GFP-seq) (ratio to wild type); higher = more function; SUP4oc tRNA, yeast GFP reporter sort-seq
How it was run: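 Sorted GFP/RFP bins of yeast were each Illumina-sequenced with a phred ≥30 cutoff; the cells held a genome-integrated ochre-suppressor tRNA variant from a library with ~3% random mutations, a galactose-driven GFP ochre reporter, and RFP. Culture was in raffinose/galactose medium containing 80 mg/L adenine. Nonsense suppression, termed GFPSEQ, is the median GFP/RFP of the bins weighted by each variant's estimated cell share per bin, relative to the unmutated parent tRNA, for variants reaching ≥100 reads and ≥30 cells.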

Row | Variant | nonsense suppression
1 | C12A U63C G69U | ≤ 0.026
2 | C12A U63C U70C | ≤ 0.026
3 | C12A U70C | ≤ 0.026
4 | C12A U71G | ≤ 0.026
5 | C12G | ≤ 0.026
6 | C12G A13G A23U | ≤ 0.026
7 | C12G A13U U16A | ≤ 0.026
8 | C12G A14C C27G U35C U55A | ≤ 0.026
9 | C12G A14G G32U U55C G85A G86A | ≤ 0.026
10 | C12G A14U U16A | ≤ 0.026
11 | C12G A23C U63C | ≤ 0.026
12 | C12G A23G | ≤ 0.026
13 | C12G A23G A54U | ≤ 0.026
14 | C12G A23G C64G | ≤ 0.026
15 | C12G A24C | ≤ 0.026
16 | C12G A30C | ≤ 0.026
17 | C12G A30G | ≤ 0.026
18 | C12G A33G | ≤ 0.026
19 | C12G A33G C77G C83G G85A | ≤ 0.026
20 | C12G A33G G61U | ≤ 0.026
21 | C12G A33U | ≤ 0.026

Row | Variant | nonsense suppression
22 | C12G A33U U57C | ≤ 0.026
23 | C12G A54G | ≤ 0.026
24 | C12G A54G U57G A60U C77U | ≤ 0.026
25 | C12G A60C G66C | ≤ 0.026
26 | C12G A62U | ≤ 0.026
27 | C12G A87C | ≤ 0.026
28 | C12G A89U | ≤ 0.026
29 | C12G C27A G69A G88U | ≤ 0.026
30 | C12G C27G | ≤ 0.026
31 | C12G C27U C75A | ≤ 0.026
32 | C12G C29G A62C | ≤ 0.026
33 | C12G C29G G65C | ≤ 0.026
34 | C12G C34G | ≤ 0.026
35 | C12G C56G G65A A74U | ≤ 0.026
36 | C12G C56U | ≤ 0.026
37 | C12G C64A | ≤ 0.026
38 | C12G C75A | ≤ 0.026
39 | C12G C81G | ≤ 0.026
40 | C12G C83A G84U | ≤ 0.026
41 | C12G C83G | ≤ 0.026
42 | C12G G15A A33G A89G | ≤ 0.026

Row | Variant | nonsense suppression
43 | C12G G15A A87U | ≤ 0.026
44 | C12G G15A C81G | ≤ 0.026
45 | C12G G15C U21G A23U C27U U58A | ≤ 0.026
46 | C12G G18A | ≤ 0.026
47 | C12G G18C G67A C77U | ≤ 0.026
48 | C12G G19A | ≤ 0.026
49 | C12G G19A U20G C56A | ≤ 0.026
50 | C12G G19C G61C G84A | ≤ 0.026
51 | C12G G26A | ≤ 0.026
52 | C12G G26C | ≤ 0.026
53 | C12G G26U C29U C80A | ≤ 0.026
54 | C12G G28C G32U C72G C83G | ≤ 0.026
55 | C12G G28C U70G G88A | ≤ 0.026
56 | C12G G32C U58C G59A | ≤ 0.026
57 | C12G G32U G73C A74U C80A | ≤ 0.026
58 | C12G G32U U57G G69A | ≤ 0.026
59 | C12G G67C C75U | ≤ 0.026
60 | C12G G69U | ≤ 0.026
61 | C12G G73C | ≤ 0.026
62 | C12G G84A | ≤ 0.026
63 | C12G G84A A87U | ≤ 0.026

Row | Variant | nonsense suppression
64 | C12G G85C | ≤ 0.026
65 | C12G U16A A31C U55G G73C | ≤ 0.026
66 | C12G U16A G18U C80G C82U | ≤ 0.026
67 | C12G U16C | ≤ 0.026
68 | C12G U16G G19A G59C | ≤ 0.026
69 | C12G U17A U22G A60G G88A | ≤ 0.026
70 | C12G U17C A89C | ≤ 0.026
71 | C12G U17C U21G | ≤ 0.026
72 | C12G U20C | ≤ 0.026
73 | C12G U21C G65C | ≤ 0.026
74 | C12G U58C A87U | ≤ 0.026
75 | C12G U58G U70G | ≤ 0.026
76 | C12G U63A G88A | ≤ 0.026
77 | C12G U70A | ≤ 0.026
78 | C12U | 0.773
79 | C12U A13C U20A | ≤ 0.026
80 | C12U A13G G25U | ≤ 0.026
81 | C12U A13G U22C C27U A30C G78C | ≤ 0.026
82 | C12U A14C C34U | ≤ 0.026
83 | C12U A14U A54U C68G | ≤ 0.026
84 | C12U A23G A54C | ≤ 0.026
